PubChem BioAssay AID1963576 (National Center for Advancing Translational Sciences (NCATS), 2024)
In all, about 46,000 compounds went through this assay and about 60 (0.1%) were called active. Another 3% or so got no clear call; they are omitted. The call rests on the fitted dose curve; in most records, active means well fitted inhibition curve with a large enough effect; inconclusive means small, poorly fitted or top-dose-only effect; inactive means no such curve, though single readings can be large or run the other way. Some of the results follow.

Assay: Primary qHTS assay for Inhibitors of ovarian cancer metastasis using an organotypic tumor microenvironment (TME) model. Further: nearly all actives have a fitted effect of over 65% in size.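 On activity change, negative = inhibition: plate controls were DMSO wells for no effect and tomatine positive control wells for full effect.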
Conditions: SKOV3ip1-GFP adhesion/invasion on 3D omental model, fluorescence; series mostly up to 45.8 µM; activity change, negative = inhibition: at the top concentration
Outline: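 Adhesion/invasion was scored as fixed GFP-labeled SKOV3ip1 cell counts (488/509 nm), normalized to DMSO and tomatine controls. Cancer cells in serum-free medium, with four compound doses (0.36-46 umol/L), sat 2 hr at RT then 16 hr at 37 C on a 48 hr fibroblast/mesothelial/ECM culture.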

Activity change, negative = inhibition, inactive:
CCc1ccc(NC(=O)Cn2ccn(Cc3ccccc3OC)c(=O)c2=O)cc1 -9.41%
Cc1ccc(C2=Nc3ccc(Cl)cc3OC2)cc1 -1.11%
COc1ccc(NC(=O)C(=O)NCC2(c3ccc(OC)c(OC)c3)CCCC2)cc1 1.82%
O=C(COCc1cc(-c2cccs2)on1)NCc1ccc(Cl)cc1 -9.32%
COc1cc(NC(=O)Cn2nnc(-c3ccc(C(F)(F)F)cc3)n2)c(C(=O)O)cc1OC -0.393%
CCCOC(=O)c1c(NC(=O)C2c3ccccc3Oc3ccccc32)sc2c1CCCC2 1.41%
COc1ccc(NC(=O)CCCSc2nc(-c3ccco3)cc(C(F)(F)F)n2)c(OC)c1 0.693%
COc1cccc(OCc2nc3ccccc3n2Cc2ccccc2C)c1 -1.84%
O=C(Cn1c(=O)oc2cc(S(=O)(=O)NCc3ccccc3)ccc21)Nc1ccc(F)c(Cl)c1 -1.81%
CCC(=O)n1nc(-c2cccnc2)nc1NCc1ccc(F)cc1 3.84%
O=C(NCCC1=CCCCC1)c1ccc2c(=O)n3nc(Nc4ccccc4)sc3nc2c1 1.89%
O=C(Nc1ccccc1C(F)(F)F)c1ccc2oc(=O)c(S(=O)(=O)c3ccc(F)cc3)cc2c1 -7.91%
Cc1ccccc1CNC(=O)CN1C(=O)CSc2ccc(S(=O)(=O)N(C)C)cc21 -9.02%
COCCCNC(=O)c1cn(CCOC)c(=O)c2c1c1ccccc1n2C -21.4%
Cc1ccc(NC(=O)CSc2nnc3[nH]c(=O)cc(-c4ccccc4)n23)cc1Cl -5.39%
COc1ccc(CCNC(=O)Cc2c(C)c3c(cc(C)c4c(C)c(C)oc43)oc2=O)cc1 1.33%
CC(=O)c1ccc(N2CCN(c3ncnc4c3nc3n4CCCC3)CC2)cc1 -1.56%
COc1ccccc1N1CCN(c2ncc3c(n2)CCN(Cc2ccccc2F)C3)CC1 -1.6%
Cc1ccc(CSc2oc(-c3cccs3)nc2S(=O)(=O)c2ccccc2)cc1 1.19%
COc1ccc(CCNC(=O)c2cnn(-c3ccc(F)cc3)c2C2CCN(C(=O)OC(C)(C)C)CC2)c(OC)c1 -5.39%
COc1cccc(NC(=O)C2CCN(c3nnc(C)c4c(C)n(-c5ccccc5)nc34)CC2)c1 -2.36%
Cc1ccc(S(=O)(=O)N(CC(=O)NCCc2ccc(Cl)cc2)c2ccccc2C)cc1 -17.1%
Cc1c(NC(=O)c2cc(-c3cccc(O)c3)on2)c(=O)n(-c2ccccc2)n1C 23.8%
CCOC(=O)N1CCc2c(sc3c2c(=O)n(Cc2ccccc2)c(=O)n3Cc2ccccc2Cl)C1 1.67%
Cc1ccc2ncc(C(=O)N3CCN(c4ccccc4F)CC3)c(=O)n2c1 4.45%
O=C(COc1ccccc1F)Nc1nnc(SCc2cc(=O)c3ccccc3[nH]2)s1 -25.6%
OC[C@@H](O)[C@@H](O)[C@H](O)[C@@H](O)CO -3.78%
COc1ccc(NC(=O)C2CCCN(S(=O)(=O)c3ccc4c(c3)oc(=O)n4C)C2)c(OC)c1 (centres undefined) -25.8%
Cc1c(NC(=O)c2cc(=O)c3ccccc3o2)c(=O)n(-c2ccccc2)n1C 0.58%
COCCCNC(=O)c1ccc(-n2c(-c3ccccc3)cc3c2CCC(C)C3)cc1 (centres undefined) -21.4%
COc1cccc(-c2nnc(SCC(=O)NC3CCCCC3)o2)c1 8.78%
COc1ccc(S(=O)(=O)Nc2ccc(-c3cn4ccsc4n3)cc2)cc1C 72.5%
CCCCOc1ccc(S(=O)(=O)Nc2ccc(-c3ccc(N4CCC(C)CC4)nn3)cc2)cc1 -17.2%
CCOc1ccc(CCNC(=O)C2CCN(C(=O)c3cc4sccc4n3CC)CC2)cc1OCC -6.68%
Cc1ccc(NC(=O)c2ccc(CN3C(=O)CCn4nc(C)cc43)cc2)c(Cl)c1 1.4%
CCCn1c(=O)c2sccc2n2c(CCCC(=O)Nc3ccc(Oc4ccc(Cl)cc4)cc3)nnc12 -2.45%
CCOC(=O)c1noc2nc(C)n(Cc3cccc(C#N)c3)c(=O)c12 8.88%
COc1ccc(CCNC(=O)c2ccc3c(c2)nc2n3CCC(C)C2)cc1OC (centres undefined) -18.4%
CC(=O)c1ccc(NC(=O)C2CCC(CNS(=O)(=O)c3cccs3)CC2)cc1 (centres undefined) -0.191%
Cc1cccc(NC(=O)Cn2c(=O)ccc3cc(S(=O)(=O)N4CCCC4)ccc32)c1C -2.99%
CCOC(=O)c1[nH]c(C)c(CCC(=O)NCc2ccc(OC)cc2)c1C 1.19%
Cc1c(NC(=O)c2cc(-c3ccc(Cl)cc3)on2)c(=O)n(-c2ccccc2)n1C -9.4%
CCOc1ccc(NC(=O)N2CCN(Cc3cc(=O)n4nc(-c5ccc(OC)cc5)sc4n3)CC2)cc1 -0.114%
CCNC(=O)c1ccc(CSc2nc3ccncc3n2Cc2ccc(F)cc2)cc1 -2.95%
CCCCC(=O)O[C@]1(C(=O)CO)[C@@H](C)C[C@H]2[C@@H]3CCC4=CC(=O)C=C[C@]4(C)[C@@]3(F)[C@@H](O)C[C@@]21C 4.06%
Cc1cccc(CCNC(=O)CN(c2ccc(C(C)C)cc2)S(=O)(=O)c2c(C)nn(C)c2C)c1 3.07%
Cc1ccc(NC(=O)N2CCN(c3cc(-c4noc(C)n4)ccc3C)CC2)c(C)c1 5.85%
CCn1c(C(=O)NCc2cc(Br)ccc2OC)cc2oc3ccccc3c21 -11%
CCN(C(=O)Cn1cnc2onc(-c3ccc(F)cc3)c2c1=O)c1cc(C)ccc1C 0.119%
COc1ccc(CNc2nc3ccccc3c3nc(-c4ccccc4)nn23)cc1 -12.3%
COc1ccc(CCNC(=O)C2CCN(c3nc4ccccc4nc3C(F)(F)F)CC2)c(OC)c1 154%
Cc1ccc(C)c(CN2C(=O)C3(c4ccccc42)N(c2ccc(Cl)cc2)C(=O)CS3(=O)=O)c1 (centres undefined) 30.5%
CCc1ccc(NS(=O)(=O)c2c(C)nc3sc(CC)nn3c2=O)cc1 -15.3%
COc1ccc(-c2ccc(NS(=O)(=O)c3cccc(C)c3)cc2)nn1 -9.85%
CCOc1cccc(C2CC(=O)Nc3cc4c(cc32)OCCO4)c1 (centres undefined) -18.4%
Cc1cccc(NC(=O)CSc2nc(-c3ccccc3Cl)nc3c2Cc2c(CO)cnc(C)c2O3)c1C 0.97%
COc1ccc(CCNc2nc3c(-c4cccc(F)c4)nnn3c3ccccc23)cc1OC 2.4%
COc1ccc(-c2cc(C)no2)cc1S(=O)(=O)N1CCN(c2ccccc2F)CC1 -5.77%
CC(=O)N1c2ccccc2CC1C(=O)NCc1cccc(Cl)c1 (centres undefined) 6.48%
COc1cc2c(cc1OC)C(COc1ccc3c(C)cc(=O)oc3c1)N(C(=O)c1ccccc1F)CC2 (centres undefined) -0.48%
COc1cc2c(cc1OC)n(Cc1ccc([N+](=O)[O-])cc1)c(=O)n1nc(-c3ccccc3)nc21 1.89%
Cc1ccccc1NC(=O)CSc1cn(CC(=O)N(C(C)C)C(C)C)c2ccccc12 12.7%
CCc1ccccc1NC(=O)c1ccc(CN2C(=O)CCn3nc(C)cc32)cc1 -18%
CCc1ccc(NC(=O)Cn2c(=O)n(-c3ccc(OC)cc3)c(=O)c3ccc(C(=O)NCc4ccc(C)cc4)cc32)cc1 1.33%
Cc1ccc2nc(NC(=O)CSc3ncc(C(=O)Nc4ccc(F)cc4)c(=O)n3C)sc2c1 17.5%
CCn1cc(C(=O)N(C)c2ccc(C(C)C)cc2)c2cc(OC)c(OC)cc2c1=O 2.77%
CCCN(CCC)CC(O)Cn1cc(/C=C/C(=O)c2ccc(Br)cc2)c2ccccc21 (centres undefined) -4.54%
Cc1ccc(CNC(=O)CCNS(=O)(=O)c2cccc3nsnc23)cc1 3.37%
CCc1ccc(-n2nc(C)c3c(C)cc(=O)n(CC(=O)Nc4ccc(F)cc4C)c32)cc1 0.854%
CCc1nn(CC(=O)NC(C)CCc2ccccc2)c(=O)c2cc3c(OC)cccc3n12 (centres undefined) 12.7%
CCOC(=O)c1noc2nc(C)n(Cc3cccc([N+](=O)[O-])c3)c(=O)c12 -12.1%
Cc1ccc(Cc2nc3ccccc3nc2SCC(=O)N2CCN(c3ccc(F)cc3)CC2)cc1 -3.96%

outcome, inactive:
Cc1cc(C)c(NS(=O)(=O)c2ccc(-c3cnc(C4CC4)o3)cc2)c(C)c1
COc1cccc(CNC(=O)Cc2csc3ccccc23)c1OC
CCOc1ccc(N(CC)C(=O)C2CCN(S(=O)(=O)c3cccc4nonc34)CC2)cc1
COc1ccc(CCC(=O)NC2CC(=O)N(c3cccc(F)c3)C2)cc1 (centres undefined)
COc1ccc(NC(=O)c2c(NC(=O)COc3ccccc3)sc3c2CCC(C)C3)cc1 (centres undefined)
COc1ccc(-c2noc(CCC(=O)Nc3ccc(C(F)(F)F)cc3)n2)cc1
CCc1ccccc1NC(=O)N1CCc2c([nH]c3ccccc23)C1c1ccc(C)cc1 (centres undefined)
CCc1ccc(OCC(=O)N(Cc2ccc(C)o2)C2CCS(=O)(=O)C2)cc1 (centres undefined)
COc1cccc(N2CCN(C(=O)c3cccn3-c3nnc(N4CCCC4)s3)CC2)c1
COc1ccc(CCN2C(=O)c3oc4cc(C)cc(C)c4c(=O)c3C2c2ccccc2F)cc1OC (centres undefined)
CC(=O)c1ccc(NS(=O)(=O)c2ccc(-c3cc(C)no3)s2)cc1
COc1cccc(Cc2nc3ccccc3nc2SCC(=O)NCc2ccc(C)cc2)c1
O=C(NCc1ccc(F)cc1)c1ccc2c(c1)nnn2C1CCCC1
COc1ccc(N2C(=O)CS(=O)(=O)C23C(=O)N(Cc2ccc(C)cc2)c2ccccc23)cc1Cl (centres undefined)
Cc1ccccc1-c1nnc(SCC(=O)N(C)C2CCCCC2)o1
Cc1ccccc1OCC(=O)Nc1ccc2nc(SCc3ccccc3)sc2c1
Cc1ccc(OCC(=O)Nc2nc(-c3ccc(Br)cc3)ns2)cc1C
CC(=O)c1ccc(NC(=O)c2nc(-c3ccc(C)cc3)n3c2CCCCC3)cc1
COc1ccc(OCC(=O)NC2CC(=O)N(c3ccc4c(c3)OCCO4)C2)cc1 (centres undefined)
CC1CCN(c2nc3c(S(=O)(=O)c4ccc(Cl)cc4)nnn3c3ccsc23)CC1
COCCNC(=O)C1CCN(c2nc3ccccc3nc2C(F)(F)F)CC1
Cc1c(CCC(=O)N2CCCCC2)c(=O)oc2cc3occ(C(C)(C)C)c3cc12
